Measured values taken from the RNAGym collection of RNA variant scans (doi:10.7554/elife.90254).
Read counts are not given, so values of variants with three or more changes are uncertain.

B1: OR4K15 (parent)
chain: GUUAACGGUCAUAGGCCAUGGAAACUAGGAGCACCAUUUCGCUGCCAGUGAAGAAAUGAACAAAGAAAAUCUGGGCCAGGCAGGCAUCAAAAGAAAUAGUCUUGCGCUCAACCAGAAAGUCUGUAAUCAUUUUAAGGGUA

Variants of: B1
Assay: self-cleavage, relative activity (ratio to wild type); higher = more cleavage; in vitro, sequencing; the parent is a self-cleaving ribozyme

Row | Variant | self-cleavage
1 | GUUAACGAUCAUAGGCCAUGGAAACUAGGAGCACCAUUUCGCUGCCAGUGAAGAAAUGAACAAAGAGAAUCUGGGCCGGGCAGGCAUCAAAAGAAAUAGUCUUGCGCUCAACCAGAAAGUCUGUAAUCAUUUUAAGGUUA [G8A A67G A78G G138U] | 0.33
2 | GUUAACGGUCAUAGGCCAUGGAAACUAGGAGCACCAUUUCGCUGCCGGUGAAGGAAUGAACAAAGAAAAUCUGGGCCAGGCAGGCAUCAAAAGGAAUAGUCUUGCGCUCAACCGGAAAGUCUGAAAUCAUUUUAAGGGUA [A47G A54G A94G A114G U124A] | 0.01
3 | GUUAACGGUCAUAGGCCAUGGAAACUAGGGGCACCAUUUCGCUGCCAGUGAAGAAAUGAACAAAGAAAAACUGGGCCAGGCAGGCAUCAAAAGAAAUAGUCUUGCGCUCAACCAGGAAGUCUGUAAUCAUUUUAAGGGUA [A30G U70A A116G] | 0.67
4 | GUUAACGGUCAUAGGCCAUGGAAACUAGGAGCACCAUUCCGCUGCCAGUGAAGAAAUGAACAAAGAAAAUCUGGGCCAGGCAGGCAUCAAAAGAGAUAGUCUUGCGCUCGACCAGGAAGUCUGUAAUCAUUUUAAGGGUA [U39C A95G A110G A116G] | 0.16
5 | GUUAACGGUCAUAGGCCAUGGAAACUAGGGGCACCAUUUCGCUGCCAGUGAAGAAAUGAACAAAGAAAAUCUGGGCCAGGCAGGCAUCAAAAGAGAUAGUCUUGCGGUCAACCAGAAAGUCCGUAAUCAUUUUAAGGGUA [A30G A95G C107G U122C] | 0.01
6 | GUUAACGGCCAUAGGCCAUGGAAACUAGGAGCACCAUUUCGCUGCCAGUGAAGAAAUGAACAAAGAAAAUCUGGGCCAGGCAGGCAUCAAAAGGAAUAGUCUCGCGCUCAACCAGAAAGUCUGUAAUCAUUUUAAGGGUA [U9C A94G U103C] | 1.38
7 | GUUAACGGUCAUAGGCCAUGGAAACUAGGAGCACCAUUUCGCUGCCAGUGAAGAAAUGAACAAAGAAAAUCUGGGCCAGGCAGGCAUCAAAAGAAACUGUCUUGCGCUCAACCAGAAAGUCUGUAAUCAUUUUAUGGGUA [U97C A98U A135U] | 0.69
8 | GUUAACGGUCAUAGGCCAUGGAGGCUAGGAGCACCAUUUCGCUGCCAGUGAAGAAAUGAACAAAGAAAAUCUGGGCCAGGCAGGCAUCAAAAGAAAUAGUCUUACGCUCAACCAGAAAGUCUGUAAUCAUUUUAAGGGUA [A23G A24G G104A] | 0
9 | GUUAACGGUCAUAGGCCAUGGAAACUAGGAGCACCAUUCCGCUGCCUGUGAAGAAAUGAACGAAGAAAAUCUGGGCCAGGCAGGCAUCAAAGGGAAUAGUCUUGCGCUCAACCAGAAAGUCUGUAAUCAUUUUAAGGGUA [U39C A47U A62G A92G A94G] | 0.39
10 | GUUAACGGUCAUAGGCCAUGGAAACUAGGAGCACCAUUUCGCUGCCAGUGAAGAAAUGAACAAAGAAAAUCUGGGCCAGGCAGGCAUCGAAAGAAAUAGUCUUGCGCUCAACCAGAAAGUCUGUAAUCAUCUUAAGGGCA [A89G U131C U139C] | 1.47
11 | GUUAACGGUCAUAGGCCAUGGAAACUAGGAGCACCAUUUCGUUGCCAGUGAAGAAAUGAACAAAGAAAAUCUGGGCCAGGCAGGCAUCAAAAGAAAUAGUCUUGCGCCCAACCAGAGAGUCUGUAAUCAUUUUAAGGGUA [C42U U108C A117G] | 0.01
12 | GAUAACGGUCAUAGGCCAUGGAAACUAGGAGCACCAUUUCGCUGCCAGUGAAGAAAUGAACAAAGAAAACCUGGGCCAGGCAGGCAUCAAAAGUAAUAGUCUUGCGCCCAACCAGAAAGUCUGUAAUCAUUUUUAGGGUA [U2A U70C A94U U108C A134U] | 0.02
13 | GUUGACGGUCAUAGGCCAUGGAAACUAGGAGCACCAUUUCGCUGCCAGUGAAGAAGUGAACAAAGAAAAUCUGGGCCAGGCAGGCAUCAAAAGAAAUAGUCUCGCGCUCAACCAGAAAGUCUGUAAUCAUUUUAAGGGUA [A4G A56G U103C] | 0.8
14 | GUUAGCGGUCAUAGGCCAUGGAAACUAGGAGCACCACUUCGCUGCCAGUGAAGAAAUGAACAAAGAAAGUCUGGGCCAGGCAGGCAUCAAAAGAAAUAGUCUUGCGCUCAGCCAGAAAGUCUGUAAUCAUUUUAAGGGUA [A5G U37C A69G A111G] | 0.08
15 | GUUAACGGUCAUAGGCCAUGGAAACUAGGAGCACCAUUUCGCUGCCAGUGAAGAAAUGAACAAAGAGAGUCUGGGCCAGGCAGGCAUCAGAGGAGAUAGUCUUGCGCUCAACCAGAAAGUCUGUAAUCAUUUUAAGGGUA [A67G A69G A90G A92G A95G] | 1.58
16 | GUUAACGGUCAUAGGCCAUGGAAACUAGGAGCACCAUUUCGCUGCCAGUGAGGAAAUGAACAAGGAAAAUCUGGGCCUGGCAGGCAUCAAAAGAAAUAGUCUUGCGCUCAACCAGAAAGUCUGUAAUCAUUUUAAGGGUA [A52G A64G A78U] | 0.37
17 | GUUAACGGUCAUAGGCCAUGGAGACUAGGAGCACCACUUCGCUGCCAGUGAAGAAAUGAACAAAGAAAGUCUGGGCCAGGCAGGCAUCAAAAGAAAUAGUCUUGCGCUCAACCAGGAAGUCUGUAAUCAUUUUAAGGGUA [A23G U37C A69G A116G] | 0.52
18 | GUUAACGGUCAUAGGCCAUGAAAACUAGGAGCACCAUUUCGCUGCCAGUGAAGAAAUGAACAAAGAAAAUCUGGGCCAGGCAGGCAUCGAAAGAAAUAGUCUUGCGCUCUACCAGAAGGUCUGUAAUCAUUUUAAGGGUA [G21A A89G A110U A118G] | 0.68
19 | GUUAACGGUCAUAGGCCAUGGAAACUAGGAGCACCAUUACGCUGCCAGUGAAGAGAUGAACAAAGAAAAUCUGGGCCAGGCAGGCAUCAAAAGAAAUAGUCUUGCGCUCAACCGGAAAGUCUGUAAUCAUUUUAAGGGUA [U39A A55G A114G] | 0.24
20 | GUUAACGGUCAUAGGCCAUGGAAACUAGGAGCACCAUUUCGCUGCCAGUGAAGAAAUGAACAAAGAAAAUCUGGGCCAGGCAGGCAUCAAGAGAAAUAGUCUUGCGCUCAACCAGAAAGUCUGUAAACAUUUUAGGGGUA [A91G U127A A135G] | 2.29
21 | GUUAACGGUCAUAGGCCAUGGAAACUAGGAGCACCAUUACGCUGCCAGUGAAGAAAUGAACAAAGAAAAUCUGGGCCAGGCAGGCAUCAAGAGAAAUAGUCUUGCGCUCAACCCGAAAGUCUGUAAUCAUUUUAAGGGUA [U39A A91G A114C] | 0

Row | Variant | self-cleavage
22 | GUUAACGGUCAUGGGCCAUGGAAACUAGGAGCACCAUUUCGCUGCCAGUGAUGAAAUGAACAAAGGAAAUCUGGGCCAGGCAGGCAUCCAAAGAAAUAGUCUUGCGCUCAACCAGAAAGUCUGUAAUCAUUUUAAGGGUA [A13G A52U A66G A89C] | 0.44
23 | GUUAACGGUCAUAGGCCAUGGAAACUAGGAGCACCAUUUCGCUGCCAGUGGAGGAAUGAACAAAGUAAAUCUGGGCCAGGCGGGCAUCUAAAGAAAUAGUCUUGCGCUCAACCAGAAAGUCUGUAAUCAUUUUAAGGGUA [A51G A54G A66U A82G A89U] | 0.47
24 | GUUAACGGUCAUAGGCCAUGGAUACUAGGGGCACCAUUUCGCUGCCAGUGAAGAAAUGAACAAAGAAAACCUGGGCCAGGCAGGCAUCAAAAGAAAUAGUCUUGCGCUCAACCAGAAAGUCUGUAAUCAUUUUAAGGGUA [A23U A30G U70C] | 1.03
25 | GUUAACGGUCAUAGGCCAUGGUAACUAGGAGCACCAUUUCGCUGCCAGUGAAGAAAUGAACAAAGAAAAUCUGGGCCUGGCAGGCAUCAAAAGAAAUAGUCUUGUGCUCAACCAGAAAGUCUGUAAUCAUUUUAAGGGUA [A22U A78U C105U] | 0.01
26 | GCUAACGGUCAUAGGCCAUGGAAACUAGGAGCACCAUUUCGCUGCCAGUGAAGAAACGAACAAAGAAAAUCUGGGCCAGGCAGGCAUCAAAAGAAAUAGUCUUGCGCUCAACCAGAGAGUCUGUAAUCAUUUUAAGGGUA [U2C U57C A117G] | 0.4
27 | GUUAACGGUCAUAGGCCAUGGAAACUAGGAGCACCAUUUCGCUGCCAGUGAAGAGAUGAACAGAGAAAAUCUGGGCCAGGCAGGCAUCAAAAGAAAUAGUCUUGCGCUCAGCCAGAAAGUCUGUAAUCAUUUUAAGGGUA [A55G A63G A111G] | 0.02
28 | GUUAACGGUCAUAGGCCAUGGAAACUAGGUGCACCAUUUCGCUGCCAGUGAAGAAAUGAACAAAGAAAAUCUGGGCCCGGCAGGCGUCAAAAGAAAUAGUCUUGCGCUCAACCAGAAAGUCUGUAGUCAUUUUAAGAGUA [A30U A78C A86G A126G G137A] | 0.07
29 | GUUAACGGACAUAGGCCAUGGAAACUAGGAGCACCAUUUCGCUGCCAGUGAAGAAAUGAACAAAGAAAAUCUGGGCCAGGCAGGCAUCAAAAGAAAGAGUCUUGCGCUCAACCAGAAAGUCUGUAACCAUUUUAAGGGUA [U9A U97G U127C] | 0.58
30 | GUUAACGGUAAUAGGCCAUGGAAACUAGGAGCACCAUUUCGCUGCCAGUGAAGAAAUGAACAAAGAAAAUCUAGGCCAGGCAGGCACCAAAAGAAAUAGUCUUGCGCUCAAUCAGAAAGUCUGUGGUCAUUUUAAGGGUA [C10A G73A U87C C112U A125G A126G] | 0
31 | GUUAACGGUCAUAGGCCAUGGAAACUAGGAGCACCAUUUCGCUGUCAGUGAAGAAAUGAACAAAGAAGAUCUGGGCCAGGCAGGCAUCAAAAGAAAUAGUCUUGCGCUCAACCAGAAAGUCUGUAAUCAUCUUAAGGGUA [C45U A68G U131C] | 1.08
32 | GUUAACGGUCAUAGGCCAUGGAAACUAGGAGCACCAUUUCGCUGCCGGUGAAGAAAUGAACAAUGAAAAUCUGGGCCAGGCAGGCAUCAAAAGAAAUAGUCUUGCGCUCAACUAGAAAGUCUGGAAUCAUUUUAAGGGUA [A47G A64U C113U U124G] | 0.08
33 | GUUAACGGUCAUAGGCCAUGGAAACUAGGAGCACCAUUACGCUGCCAGUGAAGAAAUGAACAAAGAAAAACUGGGCCAGGCAGGCAUCAAAAGAAAUAGUCUUGCGCUCAGCCAGAAAGUCUGUAAUCAUUUUAAGGGUA [U39A U70A A111G] | 0.03
34 | GUUAACGGUCAUAGGCCAUGGAAACCAGGAGCACCAUUUCGCUGCCAGUGAAGGAAUGAACAAAGAAAAUCUGGGCCAGGCAGGCAUCAAAAGAAAUAGUCAUGCGCUCAACCAGAAAGUCUGUAAUCAUUUUAAGGGUA [U26C A54G U102A] | 0.78
35 | GUUAUCGGUCAUAGGCCAUGGAAACUAGGAGCACCAUUUCGCUGCCAGUGGAGAAAUGAACAAAGGAAAUCUGGGCCAGGCAGGCAUCAAAAGAAAUAGUCUUGCGCUCAACCAGAAAGUCUGUAAUCAUCUUAAGGGUA [A5U A51G A66G U131C] | 1.17
36 | GUUACCGGUCAUAGGCCAUGGAAACUAGGAGCACCAUUUCGCUGCCAGUGAAGAAAUGAACAAAGAAAAUCUGGGCCAGGCAGGCAUCAAAAGUAAUAGUCUUGCGCUCAACCAGAAAGUCUGUAAUCAUUUUAAGGGUG [A5C A94U A140G] | 1.35
37 | GUUAACGGUCAUAGGCCAUGGAAACUAGGAGCACCACUUCGCUGCCAGUGAAGAAAUGAACGAAGAAAAUCUGGGCCAGGCAGGCAUCAAGAGAAAUAGUCUUGCGCUCAACCAGAAAGUCUGUAAUCAUUUUAAGGGUA [U37C A62G A91G] | 1.55
38 | GUUAACGGUCAUAGGCCAUGGAGACUAGGAGCACCAUUUCGCUGCCAGUGAAGGAAUGAACAAAGAAAAUCCGGGCCAGGCAGGCAUCAAAAGAAAUAGUCUUGCGCUCAACCAGAAAGUCUGUAAUCAUUUUAAGGGUA [A23G A54G U72C] | 0.06
39 | GUUAACGGUCAAAGGCCAUGGAGACUAGGAGCACCAUUUCGCUGCCAGUGCAGAAAUGAACAAAGAAAAUCUGGGCCAGGCGGGCAUCAAAAGAAAUAGUCUUGCGCUCAACCAGAAAGUCUGUAAUCAUUUUAAGGGUA [U12A A23G A51C A82G] | 0.66
40 | GUUAACGGUCAUAGGCCAUGGAAACUAGGAGCACCAUAUCGCUGCCAGUGAAGAAAUGAACAAAGAAAAUCUGGGCCAGGCAGGCAUCAAAAGAAAUAGUCUUGCGCUCAACCAGAGAGUCUGUAGUCAUUGUAAGGGUA [U38A A117G A126G U132G] | 2.54
41 | GUUAACGGUCAUAGGCCAUGGAAACUAGGAGCACCAUUUCGCUGCCAGUGAAGAAAUGAACAAAGAAAAUCUGGGCCAGGCAGGCAUCGAAAGAAAUAGUCAUGCGCUCAACCAGAAAGUCUGUAAUCACUUUAGGGGUG [A89G U102A U130C A135G A140G] | 0.53
